Here are results for 25 compounds from PubChem BioAssay AID360 (National Center for Advancing Translational Sciences (NCATS), 2006).

Among all 48,000 compounds or so, about 550 (1.1%) were called active. Another 4% or so got no clear call; they are omitted. Rule as the data show it: active = potency below about 15 µM; inconclusive = mostly about 16 µM to 33 µM; inactive = weaker than that. Some of the results follow.
Potency is read from the fitted curve at half-maximal effect.

UniProt P04062, sequence (P04062 whole entry, looked up): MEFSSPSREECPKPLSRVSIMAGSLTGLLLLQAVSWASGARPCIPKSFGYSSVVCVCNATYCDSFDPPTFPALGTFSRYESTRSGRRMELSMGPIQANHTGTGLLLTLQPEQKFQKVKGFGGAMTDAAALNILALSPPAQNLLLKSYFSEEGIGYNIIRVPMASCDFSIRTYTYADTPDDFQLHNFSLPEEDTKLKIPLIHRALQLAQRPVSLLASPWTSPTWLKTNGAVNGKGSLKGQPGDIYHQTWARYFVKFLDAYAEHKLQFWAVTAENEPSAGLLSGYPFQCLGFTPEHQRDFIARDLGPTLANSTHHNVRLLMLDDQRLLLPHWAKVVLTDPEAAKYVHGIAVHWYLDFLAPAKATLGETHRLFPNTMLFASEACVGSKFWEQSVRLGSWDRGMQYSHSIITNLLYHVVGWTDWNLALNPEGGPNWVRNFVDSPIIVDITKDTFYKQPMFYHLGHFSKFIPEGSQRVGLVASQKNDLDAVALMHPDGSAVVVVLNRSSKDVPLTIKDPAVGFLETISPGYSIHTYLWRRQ

For the assay, the target named is Lysosomal acid glucosylceramidase (Homo sapiens) (UniProt P04062). As to the kind of experiment: Glucocerebrosidase.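 Also: the screen sought inhibitors.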 To be noted: purified enzyme, resorufin glucoside fluorescence (screen aimed at inhibitors), 20 min; series mostly up to 77 µM. The method in brief:
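Compounds titrated against 0.2 nM normal enzyme, 30 uM resorufin beta-D-glucopyranoside substrate, citrate/phosphate buffer with taurocholate and tween-20, pH 5.9. Reaction ran 20 min at room temperature; fluorescence (Ex 548/Em 600) gave AC50.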
On to `Cc1cccc(-c2nc(CN3CCCC(C(=O)NC4CCCC4)C3)c(C)o2)c1` (stereo not given), for which the Potency entry is “inactive”. The result for `Cc1ccc(C(C(=O)NC2CCCCC2)N(CC2CCCO2)C(=O)CNC(=O)c2ccco2)cc1` (stereo not given) reads inactive: > 76.9 µM; that for `CCC1(C(=O)OC)NC(c2ccccc2OC)C2C(=O)N(C)C(=O)C21` (stereo not given), inactive: > 76.9 µM; that for `CCC(C)(C)n1nnnc1C(c1cc2cc3c(cc2[nH]c1=O)OCO3)N1CCN(C)CC1` (stereo not given), inactive: > 76.9 µM. As to `COc1cc(Cn2c(C(=O)O)cc3sccc32)cc(OC)c1OC`, the Potency was inactive: > 76.9 µM.

Take `Cc1cccc(-c2noc(C3CCCCC3)n2)c1`: the Potency is inactive: > 76.9 µM.

With `COc1ccc(C)cc1-n1c(N)c(C#N)c(C#N)c1-c1ccc(OC)c(OC)c1OC`, the Potency is inactive: > 76.9 µM.

`Cc1nn(-c2ccccc2)c(C)c1C(=O)Nc1nnc(-c2ccco2)o1`: the Potency is inactive: > 76.9 µM. As for `CCOC(=O)Nc1cccc(Nc2ccccc2)c1`, the Potency is inactive: > 76.9 µM. Take `Cc1cc(C)n(-c2nc3ccccc3nc2Nc2ccc3[nH]c(=O)[nH]c3c2)n1`: the Potency is inactive: > 76.9 µM. Regarding `COc1ccc(C2CCN(Cc3cccnc3)CC2O)cc1` (stereo not given), the Potency is inactive: > 76.9 µM. As to `O=C(CCn1c(=O)oc2ccccc21)N1CCCCCC1`, the Potency is inactive: > 76.9 µM.

On to `O=C(Cc1cccs1)Nc1nnc(SCC(=O)NC2CCCCC2)s1`, for which the Potency was inactive: > 76.9 µM. Consider `CCOC(=O)c1cn(CC(=O)Nc2ccc(C)cc2)nn1`, for which the Potency is inactive: > 76.9 µM. In the case of `NC(=O)c1ccc(-n2nnnc2Oc2ccccc2C(=O)N2CCOCC2)cc1` it was inactive: > 76.9 µM; in that of `CN(c1ccccc1)S(=O)(=O)c1cc(C(=O)c2nccn2C)ccc1Cl`, inactive: > 76.9 µM; in that of `COCCn1c(SCC(=O)Nc2cccc(C)c2)nnc1C(C)C`, inactive: > 76.9 µM.

For `CCOC(=O)c1ccc(NS(=O)(=O)c2cc(-c3nnnn3C(C)C)ccc2OC)cc1`, the Potency was inactive: > 76.9 µM. For the compound `COC(=O)c1c(C#N)c(N)nc2c1CCCC2`, the Potency is inactive: > 76.9 µM. The result for `O=C(c1cc2ccccc2o1)n1nnc2ccccc21` reads inactive: > 76.9 µM.

In the case of `c1ccc(CCc2nc(-c3ccncc3)no2)cc1`, the Potency is inactive: > 76.9 µM. For the compound `Cn1c(=O)oc2cc(S(=O)(=O)NCC3CCCO3)ccc21` (stereo not given), the Potency is inactive: > 76.9 µM. On to `CCn1c(SCc2ccc(C)cc2)nnc1-c1cnccn1`, for which the Potency is inactive: > 76.9 µM. Regarding `CCOC(=O)C1CCN(C(c2cc3ccc(C)cc3[nH]c2=O)c2nnnn2C2CCCCC2)CC1` (stereo not given), the Potency was inactive: > 76.9 µM. In the case of `O=C(NCCN1CCN(C(=O)c2cccs2)CC1)c1cccs1`, the Potency is inactive: > 76.9 µM.
